Results as given in PubChem BioAssay AID2451 (National Center for Advancing Translational Sciences (NCATS), 2010).
Hit rate of the full screen: of about 290,000 compounds, about 2,100 (0.72%) were called active. The shares of active, inactive and inconclusive entries below differ from those in the screen. Calls follow the shape of the dose curve; as a rule, active = well fitted inhibition curve with a large enough effect; inconclusive = small, poorly fitted or top-dose-only effect, or effect the other way; inactive = flat fitted curve, though single readings scatter. Potencies of inconclusive entries are doubtful fits and often do not repeat.
% is scaled to controls: 0 for no effect and ±100 for the full control effect; potency is read from the fitted curve at half-maximal effect; tags tell the direction and shape of the fitted curve.
Also: nearly all actives have a fitted effect of over 55% in size.

These compounds were tested against Fructose-bisphosphate aldolase (Giardia intestinalis (strain ATCC 50803 / WB clone C6)) (UniProt A8B2U2) (assay: qHTS Assay for Inhibitors of Fructose-1,6-bisphosphate Aldolase from Giardia Lamblia). Settings: purified Giardia FBPA; activity, negative = inhibition: at 59.6 µM (top of the series) unless noted.
UniProt A8B2U2, sequence (A8B2U2 whole entry, looked up): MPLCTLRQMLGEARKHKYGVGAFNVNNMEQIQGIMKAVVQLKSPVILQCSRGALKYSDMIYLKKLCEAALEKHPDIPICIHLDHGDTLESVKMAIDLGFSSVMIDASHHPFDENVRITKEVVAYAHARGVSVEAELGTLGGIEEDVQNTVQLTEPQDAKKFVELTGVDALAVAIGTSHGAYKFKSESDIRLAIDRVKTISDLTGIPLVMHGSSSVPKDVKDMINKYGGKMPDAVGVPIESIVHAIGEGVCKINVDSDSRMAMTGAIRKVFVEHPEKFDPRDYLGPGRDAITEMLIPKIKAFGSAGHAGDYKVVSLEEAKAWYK
Method in brief: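 40 nM FBPA preincubated 10 min at RT with compound (up to 57.5 uM final), then substrate plus GAPDH/TPI/NAD/arsenate coupling and diaphorase/resazurin added. Fluorescence read after 20 min at RT, 525/598 nm.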
For `CCCN1C(=O)c2cc(C(=O)O)ccc2C1O` (centres undefined), the Potency was inconclusive: 15.8 µM [activator, single point]. `COc1ccccc1NC(=O)c1sc(NC(=O)c2ccco2)c(C#N)c1C` was tested, and the “activity, negative = inhibition” value was inactive: 0.286%. In the case of `C/C(=N/NC(=O)c1cc(O)c(O)c(O)c1)c1ccc([N+](=O)[O-])cc1`, the Potency is reported as inconclusive: 15.8 µM [inhibitor, partial curve]. With `Cc1cc(=O)[nH]c(N/N=C/C(C)c2ccccc2)n1` (centres undefined) the Potency was inconclusive: 19.9 µM [inhibitor, partial curve]. In the case of `CCc1ccc2[nH]c(=O)c(C(c3nnnn3CC3CCCO3)N3CCCc4ccccc43)cc2c1` (centres undefined), the Potency is reported as inconclusive: 9.98 µM [inhibitor, partial curve]. With `O=C(NC(=S)Nc1ccc(S(=O)(=O)N2CCCC2)cc1)c1cccs1` the Potency was inconclusive: 7.92 µM [inhibitor, partial curve, poor fit]. For `COC(=O)C1=C(C)NC(C)=C([N+](=O)[O-])[C@@H]1c1ccccc1C(F)(F)F`, the Potency was inconclusive: 7.92 µM [inhibitor, partial curve]. `O=C(/C=C/c1cccs1)Nc1scc(-c2ccccc2)c1C(=O)O` was tested, and the Potency was inconclusive: 19.9 µM [inhibitor, partial curve]. `CCOc1ccccc1/C=N/NC(=O)CNC(=O)COc1ccccc1` was tested, and the Potency was active: 17.7 µM. For `O=C(CCN1CCOCC1)Nc1ccc(Cl)cc1`, the Potency was inconclusive: 39.8 µM [inhibitor, single point]. In the case of `N#CC12C(N)=NC3(OCCO3)C1(C#N)C1=C(CCC1)NC2c1ccccc1` (centres undefined), the Potency is reported as inconclusive: 31.5 µM [inhibitor, single point]. With `OCCN1CCN(C(=S)c2ccc(-c3ccccc3)cc2)CC1` the Potency was active: 11.2 µM. With `COc1ccc(N=CC=C2OC(C)(C)C(C)(C)O2)cc1OC` the Potency was inconclusive: 17.7 µM [inhibitor, partial curve]. For `Cc1cc(C)nc(SCc2ccc(C(=O)NNC(=O)Nc3cccc(Cl)c3)cc2)n1`, the “activity, negative = inhibition” value was inactive: 0.0752%. In the case of `CCN(CC)c1ccc(NC2=C(Cl)C(=O)c3ccccc3C2=O)cc1`, the Potency is reported as inconclusive: 2.81 µM [inhibitor, partial curve]. For `Cn1c(NNC(=O)c2ccccc2F)cc(=O)n(C)c1=O`, the Potency was inconclusive: 12.6 µM [inhibitor, partial curve]. `CN1C(=O)N(C)C(=O)C2(Cc3c(ccc4ccccc34)N(C)C2)C1=O` was tested, and the Potency was inconclusive: 11.2 µM [inhibitor, partial curve]. With `CCOc1ccc(NC(=O)NCCCN2CCCC2)cc1` the Potency was inconclusive: 17.7 µM [inhibitor, partial curve]. With `CCc1nnc(NC(=O)CSc2nc(C)nc3c2c(=O)n(C)c(=O)n3C)s1` the Potency was inconclusive: 22.4 µM [inhibitor, partial curve]. For `C=CCOc1cccc(CNCc2cccnc2)c1`, the Potency was inconclusive: 20 µM [inhibitor, partial curve]. `c1ccc(N2CCN(c3ncnc4c3oc3ccccc34)CC2)cc1` was tested, and the “activity, negative = inhibition” value was inactive: 0.0703%. With `COc1ccc(C(=O)Nc2ccccc2C(=O)Nc2cc(C)ccn2)cc1` the “activity, negative = inhibition” value was inactive: 5.61%. With `O=C(CC1CCS(=O)(=O)C1)Nc1ccc[nH]c1=O` (centres undefined) the Potency was inconclusive: 7.06 µM [inhibitor, partial curve]. `COc1cccc(C(=O)NC(=S)Nc2ccc3[nH]c(=O)[nH]c3c2)c1` was tested, and the Potency was inconclusive: 14.1 µM [inhibitor, partial curve]. With `CCc1cccc2c(-c3ccccc3)c3c(nc12)OCC3` the “activity, negative = inhibition” value was inactive: 16.4%. In the case of `Cn1cccc1C(=O)N1CCC2(CCCN(C(=O)Nc3ccccc3)C2)CC1`, the “activity, negative = inhibition” value is reported as inactive: 1.89%. For `COc1ccc(/C(O)=C2/C(=O)C(=O)N(CCN3CCOCC3)C2c2ccccn2)cc1` (centres undefined), the Potency was inconclusive: 17.7 µM [inhibitor, partial curve]. For `NC(c1ccccc1)c1ccncc1` (centres undefined), the Potency was inconclusive: 28.2 µM [inhibitor, single point]. In the case of `CC(=O)Nc1ccc(S(=O)(=O)NC2=C(N3CCN(c4ccc(F)cc4)CC3)C(=O)c3ccccc3C2=O)cc1`, the Potency is reported as inconclusive: 0.889 µM [inhibitor, full curve]. For `CCCN1CCC(N2CCN(c3ccc([N+](=O)[O-])cc3)CC2)CC1`, the Potency was active: 15.8 µM. In the case of `NNc1nc2c(-c3ccc(Cl)cc3)nnn2c2ccccc12`, the Potency is reported as active: 14.1 µM. In the case of `NC(=O)C1CCN(C2=C(NS(=O)(=O)c3ccccc3)C(=O)c3ccccc3C2=O)CC1`, the Potency is reported as inconclusive: 5.61 µM [inhibitor, partial curve]. In the case of `CC(C)C(=O)Nc1sc2c(c1C(N)=O)CCN(Cc1ccccc1)C2`, the Potency is reported as active: 28.2 µM. `O=[N+]([O-])c1ccc(NC(=S)NCc2ccncc2)cc1` was tested, and the “activity, negative = inhibition” value was inactive: 1.52%. With `O=C(/C=C/NNC(=O)c1ccccc1)c1ccccc1` the Potency was inconclusive: 11.2 µM [inhibitor, partial curve]. `CC(C)C(CCNCc1ccccn1)c1ccc(Cl)cc1` (centres undefined) was tested, and the Potency was inconclusive: 35.5 µM [inhibitor, partial curve]. For `COc1cc(-c2[nH]nc3c2C(c2ccoc2)C(C#N)=C(N)O3)cc(OC)c1OC` (centres undefined), the Potency was inconclusive: 17.7 µM [inhibitor, single point]. For `CCN1CCN(CCCCOc2ccccc2F)CC1`, the Potency was inconclusive: 19.9 µM [inhibitor, partial curve]. With `Cc1ccccc1OCC(=O)N/N=C/c1ccc(Sc2nc3ccccc3s2)o1` the Potency was inconclusive: 17.7 µM [inhibitor, partial curve]. In the case of `Cc1ccc(NC(=O)CN2CCCCCC2)cc1Br`, the Potency is reported as inconclusive: 15.8 µM [inhibitor, partial curve]. For `COC(=O)c1c(NC(=O)CN2CCN(c3ncccn3)CC2)sc(C(N)=O)c1C`, the “activity, negative = inhibition” value was inactive: -8.2%. `N#CC(C(=O)NCc1ccco1)c1nc2ccccc2nc1N1CCOCC1` (centres undefined) was tested, and the Potency was inconclusive: 22.3 µM [inhibitor, partial curve]. For `CSc1ccc(C2C(C#N)=C(N)N(c3ccccc3)C3=C2C(=O)CCC3)cc1` (centres undefined), the Potency was inconclusive: 12.6 µM [inhibitor, partial curve]. In the case of `O=C(O)Cc1ccc(-c2ccccc2-c2ccccc2)cc1`, the Potency is reported as inconclusive: 15.8 µM [activator, single point].
